For test [1], the target named is T1, full-length αKNL2 (aa 1–598), Venus-half fusion (A. thaliana) (UniProt F4KCE9).
T1 sequence: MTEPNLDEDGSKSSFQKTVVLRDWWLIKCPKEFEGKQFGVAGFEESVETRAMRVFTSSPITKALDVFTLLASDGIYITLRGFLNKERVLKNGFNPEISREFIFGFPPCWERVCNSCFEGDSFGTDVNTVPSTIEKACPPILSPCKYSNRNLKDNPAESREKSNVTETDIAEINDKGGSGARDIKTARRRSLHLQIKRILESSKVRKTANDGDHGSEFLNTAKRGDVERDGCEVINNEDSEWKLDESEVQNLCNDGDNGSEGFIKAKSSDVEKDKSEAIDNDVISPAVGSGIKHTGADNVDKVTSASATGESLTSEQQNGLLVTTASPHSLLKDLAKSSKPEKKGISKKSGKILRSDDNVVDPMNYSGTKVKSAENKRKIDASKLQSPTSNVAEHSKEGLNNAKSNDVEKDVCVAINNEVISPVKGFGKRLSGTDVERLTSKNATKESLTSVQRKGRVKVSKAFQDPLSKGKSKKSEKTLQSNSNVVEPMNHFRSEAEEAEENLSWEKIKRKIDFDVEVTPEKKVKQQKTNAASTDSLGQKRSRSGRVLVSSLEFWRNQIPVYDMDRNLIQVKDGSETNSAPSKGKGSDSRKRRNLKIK
The test can be described thus: split reporter; BiFC with Venus halves (VENn/VENc) in N. benthamiana leaf epidermal cells co-infiltrated with A. tumefaciens GV3101; HC-Pro co-expressed; both orientations tested.

Protein sequences, listed by entry. Tags and fused reporters are not part of them.
UniProt Q9FLP6: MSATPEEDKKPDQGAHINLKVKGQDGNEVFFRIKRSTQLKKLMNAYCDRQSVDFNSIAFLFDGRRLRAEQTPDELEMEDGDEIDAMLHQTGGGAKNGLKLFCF
UniProt P55852: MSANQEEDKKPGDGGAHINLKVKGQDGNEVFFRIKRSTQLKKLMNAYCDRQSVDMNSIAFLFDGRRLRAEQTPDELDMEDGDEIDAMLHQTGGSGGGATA

Test [2] concerns the target T2, αKNL2-C (C-terminal region of Arabidopsis KINETOCHORE NULL2, aa 364–598), Venus-half fusion (A. thaliana) (UniProt F4KCE9).
T2 sequence: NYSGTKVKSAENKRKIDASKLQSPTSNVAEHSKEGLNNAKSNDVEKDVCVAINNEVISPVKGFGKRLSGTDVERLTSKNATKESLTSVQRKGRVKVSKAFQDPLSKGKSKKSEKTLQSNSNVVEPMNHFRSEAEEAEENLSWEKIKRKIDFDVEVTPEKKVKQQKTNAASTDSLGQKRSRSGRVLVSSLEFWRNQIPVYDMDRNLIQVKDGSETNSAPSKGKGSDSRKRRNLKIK
Described as above.

In test [3] the target is T3, αKNL2-N (N-terminal region of αKNL2, aa 1–363), Venus-half fusion (A. thaliana) (UniProt F4KCE9).
T3 sequence: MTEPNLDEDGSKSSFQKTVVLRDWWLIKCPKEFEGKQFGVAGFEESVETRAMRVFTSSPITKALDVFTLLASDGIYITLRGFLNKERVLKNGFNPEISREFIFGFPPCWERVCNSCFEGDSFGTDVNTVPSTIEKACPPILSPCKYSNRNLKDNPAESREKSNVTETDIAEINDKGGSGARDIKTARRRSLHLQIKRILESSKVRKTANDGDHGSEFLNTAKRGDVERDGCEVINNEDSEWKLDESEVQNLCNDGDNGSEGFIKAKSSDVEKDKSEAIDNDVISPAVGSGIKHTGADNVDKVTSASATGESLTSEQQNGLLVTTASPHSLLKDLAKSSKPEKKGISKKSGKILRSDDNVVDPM
Described as above.

For test [4], the target named is T4, CENH3 (centromeric histone H3), Venus-half fusion (A. thaliana) (UniProt Q8RVQ9).
T4 sequence: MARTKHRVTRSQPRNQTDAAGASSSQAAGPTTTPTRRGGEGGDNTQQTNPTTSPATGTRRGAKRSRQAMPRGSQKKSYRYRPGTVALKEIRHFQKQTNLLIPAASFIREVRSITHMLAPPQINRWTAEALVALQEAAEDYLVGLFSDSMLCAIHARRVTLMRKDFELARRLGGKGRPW
The description is as above.

For test [5], the target named is T5, ULP1d (SUMO protease ULP1d/OTS1), Venus-half fusion (A. thaliana) (UniProt Q2PS26).
T5 sequence: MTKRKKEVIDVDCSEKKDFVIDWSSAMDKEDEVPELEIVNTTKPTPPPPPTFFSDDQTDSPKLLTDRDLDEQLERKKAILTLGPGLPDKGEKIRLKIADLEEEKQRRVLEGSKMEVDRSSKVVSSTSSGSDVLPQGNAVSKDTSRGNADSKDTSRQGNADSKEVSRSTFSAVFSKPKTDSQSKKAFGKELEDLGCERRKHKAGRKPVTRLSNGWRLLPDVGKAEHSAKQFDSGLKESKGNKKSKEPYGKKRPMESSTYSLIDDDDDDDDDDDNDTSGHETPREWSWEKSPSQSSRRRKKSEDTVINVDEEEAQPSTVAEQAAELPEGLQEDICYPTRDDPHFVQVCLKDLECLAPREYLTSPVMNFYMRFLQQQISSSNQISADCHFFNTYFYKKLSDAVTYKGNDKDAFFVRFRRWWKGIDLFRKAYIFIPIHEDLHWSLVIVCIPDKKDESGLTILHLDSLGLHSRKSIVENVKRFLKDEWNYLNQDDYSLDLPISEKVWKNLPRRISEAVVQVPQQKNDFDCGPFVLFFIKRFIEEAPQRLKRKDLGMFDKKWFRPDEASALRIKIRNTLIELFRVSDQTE
Described as above.

For test [6], the target named is T4, CENH3 (centromeric histone H3), Venus-half fusion (A. thaliana). Kind of test: co-IP; N. benthamiana leaves co-expressing HA- and cMYC-tagged (Venus-half) constructs; total protein extracts precipitated with anti-HA magnetic beads (HA-trap, Chromotek); blot with anti-cMYC.
In test [7] the target is T6, αKNL2-C^K474R/K511R, Venus-half fusion (A. thaliana) (UniProt F4KCE9).
T6 sequence: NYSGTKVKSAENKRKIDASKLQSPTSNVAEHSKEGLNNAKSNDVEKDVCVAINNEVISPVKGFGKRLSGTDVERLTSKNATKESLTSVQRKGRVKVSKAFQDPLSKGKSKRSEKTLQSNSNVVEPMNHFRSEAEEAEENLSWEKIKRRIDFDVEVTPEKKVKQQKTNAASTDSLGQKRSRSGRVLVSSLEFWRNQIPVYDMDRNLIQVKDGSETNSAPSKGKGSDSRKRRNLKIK
Kind of test: split reporter; BiFC with Venus halves (VENn/VENc) in N. benthamiana leaf epidermal cells co-infiltrated with A. tumefaciens GV3101; HC-Pro co-expressed; both orientations tested.

Test [8] addresses T7, αKNL2-C^Mut-SUMO (SUMOylation-deficient αKNL2-C: K378R, K474R, K511R, SIMs 547–551 and 568–572 deleted), Venus-half fusion (A. thaliana) (UniProt F4KCE9).
T7 sequence: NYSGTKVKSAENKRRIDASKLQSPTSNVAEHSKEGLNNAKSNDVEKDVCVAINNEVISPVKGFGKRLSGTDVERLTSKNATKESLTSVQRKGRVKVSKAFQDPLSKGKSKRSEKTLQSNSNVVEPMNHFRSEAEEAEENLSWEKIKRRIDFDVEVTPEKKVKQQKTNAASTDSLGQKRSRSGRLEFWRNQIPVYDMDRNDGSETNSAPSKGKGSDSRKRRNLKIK
The test is described as above.

Test [9] has as its target T2, αKNL2-C (C-terminal region of Arabidopsis KINETOCHORE NULL2, aa 364–598), Venus-half fusion (A. thaliana). The test can be described thus: co-IP; N. benthamiana leaves co-expressing HA- and cMYC-tagged (Venus-half) constructs; total protein extracts precipitated with anti-HA magnetic beads (HA-trap, Chromotek); blot with anti-cMYC.

No constants are given. Whether binding was seen depends on the method and setting. In cells and extracts the contact can be indirect. Some entries that bind do so weakly or less than the wild type. Sequences can lack the tags named with a protein.

On to “SUMO2, Venus-half fusion (from UniProt Q9FLP6 1-103)”, for which the binding entry in test [1], in test [2] and in test [3] was “no binding” throughout.

For the molecule “SUMO1, Venus-half fusion (from UniProt P55852 1-100)”, the binding entry in test [1], in test [2] and in test [3] was “no binding” in each case.

B1: αKNL2-C^Mut-SUMO (SUMOylation-deficient αKNL2-C: K378R, K474R, K511R, SIMs 547–551 and 568–572 deleted), Venus-half fusion (domain or fragment, UniProt F4KCE9)
chain: NYSGTKVKSAENKRRIDASKLQSPTSNVAEHSKEGLNNAKSNDVEKDVCVAINNEVISPVKGFGKRLSGTDVERLTSKNATKESLTSVQRKGRVKVSKAFQDPLSKGKSKRSEKTLQSNSNVVEPMNHFRSEAEEAEENLSWEKIKRRIDFDVEVTPEKKVKQQKTNAASTDSLGQKRSRSGRLEFWRNQIPVYDMDRNDGSETNSAPSKGKGSDSRKRRNLKIK
With B1, the binding result in [4], in test [5] and in test [6] was “no binding” each time.

B2: αKNL2-C (C-terminal region of Arabidopsis KINETOCHORE NULL2, aa 364–598), Venus-half fusion (domain or fragment, UniProt F4KCE9 364-598)
chain: NYSGTKVKSAENKRKIDASKLQSPTSNVAEHSKEGLNNAKSNDVEKDVCVAINNEVISPVKGFGKRLSGTDVERLTSKNATKESLTSVQRKGRVKVSKAFQDPLSKGKSKKSEKTLQSNSNVVEPMNHFRSEAEEAEENLSWEKIKRKIDFDVEVTPEKKVKQQKTNAASTDSLGQKRSRSGRVLVSSLEFWRNQIPVYDMDRNLIQVKDGSETNSAPSKGKGSDSRKRRNLKIK
As for B2, in test [5], the binding result is on record as “binds”.

B3: αKNL2-C^K474R/K511R, Venus-half fusion (domain or fragment, UniProt F4KCE9 364-598)
chain: NYSGTKVKSAENKRKIDASKLQSPTSNVAEHSKEGLNNAKSNDVEKDVCVAINNEVISPVKGFGKRLSGTDVERLTSKNATKESLTSVQRKGRVKVSKAFQDPLSKGKSKRSEKTLQSNSNVVEPMNHFRSEAEEAEENLSWEKIKRRIDFDVEVTPEKKVKQQKTNAASTDSLGQKRSRSGRVLVSSLEFWRNQIPVYDMDRNLIQVKDGSETNSAPSKGKGSDSRKRRNLKIK
As to B3, in test [5], the binding result is recorded as “no binding”.

B4: αKNL2-N (N-terminal region of αKNL2, aa 1–363), Venus-half fusion (domain or fragment, UniProt F4KCE9 1-363)
chain: MTEPNLDEDGSKSSFQKTVVLRDWWLIKCPKEFEGKQFGVAGFEESVETRAMRVFTSSPITKALDVFTLLASDGIYITLRGFLNKERVLKNGFNPEISREFIFGFPPCWERVCNSCFEGDSFGTDVNTVPSTIEKACPPILSPCKYSNRNLKDNPAESREKSNVTETDIAEINDKGGSGARDIKTARRRSLHLQIKRILESSKVRKTANDGDHGSEFLNTAKRGDVERDGCEVINNEDSEWKLDESEVQNLCNDGDNGSEGFIKAKSSDVEKDKSEAIDNDVISPAVGSGIKHTGADNVDKVTSASATGESLTSEQQNGLLVTTASPHSLLKDLAKSSKPEKKGISKKSGKILRSDDNVVDPM
For the molecule B4, the binding result in [5] is recorded as “no binding”.

B5: full-length αKNL2 (aa 1–598), Venus-half fusion (protein, UniProt F4KCE9 1-598)
chain: MTEPNLDEDGSKSSFQKTVVLRDWWLIKCPKEFEGKQFGVAGFEESVETRAMRVFTSSPITKALDVFTLLASDGIYITLRGFLNKERVLKNGFNPEISREFIFGFPPCWERVCNSCFEGDSFGTDVNTVPSTIEKACPPILSPCKYSNRNLKDNPAESREKSNVTETDIAEINDKGGSGARDIKTARRRSLHLQIKRILESSKVRKTANDGDHGSEFLNTAKRGDVERDGCEVINNEDSEWKLDESEVQNLCNDGDNGSEGFIKAKSSDVEKDKSEAIDNDVISPAVGSGIKHTGADNVDKVTSASATGESLTSEQQNGLLVTTASPHSLLKDLAKSSKPEKKGISKKSGKILRSDDNVVDPMNYSGTKVKSAENKRKIDASKLQSPTSNVAEHSKEGLNNAKSNDVEKDVCVAINNEVISPVKGFGKRLSGTDVERLTSKNATKESLTSVQRKGRVKVSKAFQDPLSKGKSKKSEKTLQSNSNVVEPMNHFRSEAEEAEENLSWEKIKRKIDFDVEVTPEKKVKQQKTNAASTDSLGQKRSRSGRVLVSSLEFWRNQIPVYDMDRNLIQVKDGSETNSAPSKGKGSDSRKRRNLKIK
B5: the binding entry in test [5] was “no binding”.

B6: SUMO5, Venus-half fusion (protein, UniProt Q8VZI7 1-108)
chain: MVSSTDTISASFVSKKSRSPETSPHMKVTLKVKNQQGAEDLYKIGTHAHLKKLMSAYCTKRNLDYSSVRFVYNGREIKARQTPAQLHMEEEDEICMVMELGGGGPYTP
On to B6, for which the binding result in test [1], in test [2] and in test [3] was “no binding” throughout.

B7: small ubiquitin-like modifier 3 (SUMO3), Venus-half fusion (protein, UniProt Q9FLP5 1-111)
chain: MSNPQDDKPIDQEQEAHVILKVKSQDGDEVLFKNKKSAPLKKLMYVYCDRRGLKLDAFAFIFNGARIGGLETPDELDMEDGDVIDACRAMSGGLRANQRQWSYMLFDHNGL
As for B7, the binding result in test [1] was “no binding”; in test [2], “binds”; in test [7], “no binding”; in test [8], “no binding”; in test [3], “no binding”; in test [9] it was “binds”.

The values above are taken from publication PMC12903445.
